Laboratory results reported in patent publication US20160137740A1 (AstraZeneca / MedImmune, published 2016).

Tests used:
Cynomolgus monkey OX40 = biological target: T1, Cynomolgus monkey OX40 (cynomolgus monkey); test: flow cytometry on activated primary CD4+ T cells
T1 construct: also called cyno OX40
Experimental: (§1) Cyno CD4⁺ T cells (1×10⁶ per mL in complete medium) were incubated for 48 hours in a T75 cell culture flask with 2 μg/mL PHA-L and 20 IU/mL IL-2, to activate T cells and induce OX40 expression. Activated CD4⁺ T cells were removed from the flask and 100,000 cells were transferred to each well of a non-tissue culture treated 96-well round-bottom plate for binding assays and washed with 200 μL FACS buffer. Binding was performed with 10 μg/mL OX40mAb24 or 9B12 serially diluted 4-fold in FACS buffer for an 11-point data curve, or both R347 human IgG1 or mouse IgG1 clone MOPC-21 (negative controls) serially diluted 6-fold for a 3 point data curve. OX40mAb24, 9B12 or control protein was added to CD4⁺ T cells and incubated. […] Following secondary antibody incubation, cells were processed for flow cytometry as described in Section 2.3.
(§2) Rhesus CD4⁺ T cells (1×10⁶ per mL in complete medium) were cultured for 48 hours in a T75 cell culture flask with 5 μg/mL Con-A and 1000 IU/mL IL-2 to activate T cells and induce OX40 expression. Binding to 100,000 activated rhesus CD4⁺ T cells was performed with 10 μg/mL OX40mAb24 and 9B12 serially diluted 3-fold in FACS buffer for a 10 point (experiment 1) or 12 point data curve (experiment 2) and 10 μg/mL human and mouse isotype controls diluted 6-fold for 2 data points (experiment 1) or 4 data points (experiment 2).

Rhesus monkey OX40 = biological target: T2, Rhesus monkey OX40 (rhesus monkey); test: flow cytometry on activated primary CD4+ T cells
T2 construct: also called rhesus macaque OX40
Experimental: as §1, §2

[1] = biological target: T3, Human TNFRSF9 (CD137) expressed on HEK293 cells (human, UniProt Q07011 24-255); test: flow cytometry on transfected HEK293 cells, 1 µg/mL
T3 construct: whole, on cells; also called 4-1BB
T3 sequence (Q07011 24-255): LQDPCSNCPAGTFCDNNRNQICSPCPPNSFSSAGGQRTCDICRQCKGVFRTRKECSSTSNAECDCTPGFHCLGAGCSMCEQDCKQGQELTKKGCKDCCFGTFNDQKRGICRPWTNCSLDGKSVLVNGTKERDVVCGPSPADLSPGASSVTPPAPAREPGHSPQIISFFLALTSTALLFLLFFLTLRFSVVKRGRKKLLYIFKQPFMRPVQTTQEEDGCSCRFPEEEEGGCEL
Description: (§3) cDNA constructs capable of directing the expression of individual TNFRSF members, when transfected into mammalian cells, were obtained from Origene Technologies, Rockville, Md. These cDNA constructs were amplified and purified by the Protein Sciences group at MedImmune in Gaithersburg, Md. for use in transient transfections. […] Forty-eight hours post transfection, cells were removed from tissue culture plates by trypsinization. […] Cells were then suspended in cold FACS buffer (PBS+2% FBS) and plated into 96 well non-tissue culture-treated plates for binding studies with TNFRSF member-specific mAbs (Table 3-3) and OX40mAb24.
(§4) For binding of antibodies or OX40mAb24, HEK cells were pelleted, FACS buffer removed, and cells suspended in FACS buffer containing 2 μg/mL propidium iodide (PI) and either a fluorochrome-labeled mAb, specific for the transfected TNFRSF member, at a concentration recommended by the manufacturer or with OX40mAb24 at a concentration of 1 μg/mL. For binding controls, cells were separately incubated with fluorochrome-labeled isotype control antibodies. Cells were incubated with antibodies for 1 hour at 4° C. in the dark. Thereafter, cells incubated with fluorochrome-labeled monoclonal antibodies were washed in cold FACS buffer and then binding events collected and analyzed by flow cytometry using an LSRII flow cytometer (BD Biosciences, San Jose, Calif.) and FlowJo software, as described in Section 3.2.3. Cells incubated with OX40mAb24 were washed in ice cold FACS buffer and then suspended 25 μg/mL of Alexa Fluor® 647 goat antihuman IgG (H+L) secondary antibody and incubated for a further 30 minutes at 4° C. in the dark. For a secondary antibody binding control cells were incubated in the absence of OX40mAb24, but in the presence of fluorochrome-labeled secondary antibody alone. Thereafter, cells were washed and suspended in cold FACS buffer for analysis on an LSRII flow cytometer.

[2] = biological target: T4, Human TNFRSF1β (TNFR2) expressed on HEK293 cells (human, UniProt P20333 23-461); test: as above
T4 construct: whole, on cells; also called TNFRSF1B; CD120b
T4 sequence (looked up): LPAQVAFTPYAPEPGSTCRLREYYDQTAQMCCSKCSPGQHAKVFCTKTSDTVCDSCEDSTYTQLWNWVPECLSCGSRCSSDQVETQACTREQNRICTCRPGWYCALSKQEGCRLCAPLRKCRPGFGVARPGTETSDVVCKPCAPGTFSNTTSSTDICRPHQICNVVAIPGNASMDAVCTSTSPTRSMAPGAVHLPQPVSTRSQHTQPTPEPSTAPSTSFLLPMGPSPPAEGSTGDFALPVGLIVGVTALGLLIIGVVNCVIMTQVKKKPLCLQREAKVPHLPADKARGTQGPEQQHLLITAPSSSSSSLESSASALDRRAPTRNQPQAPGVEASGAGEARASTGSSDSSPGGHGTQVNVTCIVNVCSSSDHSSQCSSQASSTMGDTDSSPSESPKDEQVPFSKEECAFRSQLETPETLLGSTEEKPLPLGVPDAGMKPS
Description: as §3, §4

[3] = biological target: Human TNFRSF3 (LTβR) expressed on HEK293 cells (human, UniProt P36941 31-435); test: as above
Sequence of UniProt P36941 (P36941 31-227): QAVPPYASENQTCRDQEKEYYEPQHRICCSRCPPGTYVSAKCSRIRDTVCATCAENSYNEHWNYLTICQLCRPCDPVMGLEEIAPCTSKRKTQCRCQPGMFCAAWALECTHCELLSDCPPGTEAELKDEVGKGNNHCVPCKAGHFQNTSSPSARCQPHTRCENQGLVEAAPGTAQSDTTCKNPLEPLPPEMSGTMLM
Description: as §3, §4

[4] = biological target: T5, Human TNFRSF14 (HVEM) expressed on HEK293 cells (human, UniProt Q92956 39-283); test: as above
T5 construct: whole, on cells; also called TR2
T5 sequence (looked up): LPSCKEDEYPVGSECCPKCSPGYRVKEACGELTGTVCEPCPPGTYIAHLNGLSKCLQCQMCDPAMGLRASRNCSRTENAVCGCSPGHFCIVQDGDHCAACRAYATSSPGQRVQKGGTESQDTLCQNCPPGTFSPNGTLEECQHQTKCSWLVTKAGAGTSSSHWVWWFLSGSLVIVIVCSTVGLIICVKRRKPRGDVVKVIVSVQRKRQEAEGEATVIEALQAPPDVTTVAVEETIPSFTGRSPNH
Description: as §3, §4

[5] = biological target: T6, Human TNFRSF16 (NGFR) expressed on HEK293 cells (human, UniProt P08138 29-427); test: as above
T6 construct: whole, on cells; also called NGF receptor
T6 sequence (looked up): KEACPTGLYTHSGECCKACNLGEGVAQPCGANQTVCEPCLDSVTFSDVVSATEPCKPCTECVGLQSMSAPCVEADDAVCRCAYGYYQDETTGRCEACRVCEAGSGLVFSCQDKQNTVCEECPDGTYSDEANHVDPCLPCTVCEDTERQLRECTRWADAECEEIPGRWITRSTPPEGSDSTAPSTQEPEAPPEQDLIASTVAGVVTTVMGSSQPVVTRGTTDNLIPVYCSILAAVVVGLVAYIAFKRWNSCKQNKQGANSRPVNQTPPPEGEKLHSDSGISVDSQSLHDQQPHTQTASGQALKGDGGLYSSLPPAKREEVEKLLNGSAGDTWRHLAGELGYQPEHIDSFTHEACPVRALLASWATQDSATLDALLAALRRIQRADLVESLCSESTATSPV
Description: as §3, §4

B1: OX40mAb24 (antibody, human IgG1, kappa)
heavy: QVQLQESGPGLVKPSQTLSLTCAVYGGSFSSGYWNWIRKHPGKGLEYIGYISYNGITYHNPSLKSRITINRDTSKNQYSLQLNSVTPEDTAVYYCARYKYDYDGGHAMDYWGQGTLVTVSSASTKGPSVFPLAPSSKSTSGGTAALGCLVKDYFPEPVTVSWNSGALTSGVHTFPAVLQSSGLYSLSSVVTVPSSSLGTQTYICNVNHKPSNTKVDKRV[skipping human IgG1 Fc]
light: DIQMTQSPSSLSASVGDRVTITCRASQDISNYLNWYQQKPGKAPKLLIYYTSKLHSGVPSRFSGSGSGTDYTLTISSLQPEDFATYYCQQGSALPWTFGQGTKVEIKRTVAAPSVFIFPPSDEQLKSGTASVVCLLNNFYPREAKVQWKVDNALQSGNSQESVTEQDSKDSTYSLSSTLTLSKADYEKHKVYACEVTHQGLSSPVTKSFNRGEC
notes: Humanized from 9B12; human IgG1 kappa; also called humanized anti-human OX40 IgG1κ monoclonal antibody
fold of cyno Kd over human Kd (Cynomolgus monkey OX40): 1.9 fold | fold of rhesus Kd over human Kd (Rhesus monkey OX40): 1.2 fold | ratio of MFI to secondary antibody alone [1]: 1.2 fold | ratio of MFI to secondary antibody alone [2]: 1 fold | ratio of MFI to secondary antibody alone [3]: 1 fold | ratio of MFI to secondary antibody alone [4]: 1.1 fold | ratio of MFI to secondary antibody alone [5]: 2.2 fold
